# Experimental data: PubChem BioAssay AID686992 (Broad Institute, 2013)
# Screen size: about 260,000 compounds; about 960 (0.37%) were called active. The inconclusive results got no clear call from the source; some entries with a clear call stand among them for comparison.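 The calls were made as follows: active = mean E-selectin-positive cell signal at least 10% of the positive control, reached in at least 60% of replicates, without over 20% cell loss; inconclusive = no rule given, readout overlaps actives, possibly toxicity-flagged; inactive = the rest, including those meeting only one limit.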
# Molecular target: E-selectin (Homo sapiens) (UniProt P16581)
# Sequence of UniProt P16581 (P16581 whole entry, looked up): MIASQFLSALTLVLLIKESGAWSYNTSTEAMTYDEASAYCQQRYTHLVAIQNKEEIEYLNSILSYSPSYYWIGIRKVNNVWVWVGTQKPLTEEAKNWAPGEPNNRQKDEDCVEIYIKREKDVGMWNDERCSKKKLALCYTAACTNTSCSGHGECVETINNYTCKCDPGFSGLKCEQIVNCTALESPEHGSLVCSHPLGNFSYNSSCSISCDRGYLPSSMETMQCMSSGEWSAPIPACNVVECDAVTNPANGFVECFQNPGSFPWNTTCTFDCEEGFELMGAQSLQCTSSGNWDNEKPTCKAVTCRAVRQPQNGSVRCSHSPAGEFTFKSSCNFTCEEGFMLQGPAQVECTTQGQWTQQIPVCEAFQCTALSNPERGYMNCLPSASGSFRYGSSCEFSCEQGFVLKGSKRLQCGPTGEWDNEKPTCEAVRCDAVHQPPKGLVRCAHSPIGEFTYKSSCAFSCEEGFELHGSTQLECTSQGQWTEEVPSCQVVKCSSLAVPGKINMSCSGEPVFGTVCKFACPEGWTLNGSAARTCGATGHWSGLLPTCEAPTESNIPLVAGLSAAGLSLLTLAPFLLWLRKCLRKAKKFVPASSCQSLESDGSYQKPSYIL
# Assay: inducers of endothelial E-selectin expression – imaging, HUVEC, immunofluorescence imaging, single point, primary screen (AID 686992);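 also: signal is the percent of cells scored E-selectin positive by PE staining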
# Conditions: at 7.58 µM, hits give high values, normalized: neutral wells 0, TNF-alpha wells 100
# In short: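 assay system = HUVEC, human umbilical vein endothelial cells | input = 3,000 HUVEC seeded per well | medium = EGM-2 growth medium on 0.1% gelatin-coated wells | dosing = one compound dose added by pin transfer | signal = immunofluorescence imaging | read-out basis = % PE-positive cells | control set = TNF-alpha, DMSO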
row,SMILES,activation
1,Cc1cc(C)c(S(=O)(=O)N(C)CC(=O)NCCCn2ccnc2)c(C)c1,inconclusive: 26.4%
2,CC1CC(NC(=S)N(C)C)CC(C)(C)C1 (centres undefined),inconclusive: 65.7%
3,CN(C)CC(=O)N1[C@H](C#N)[C@@H](c2ccccc2-c2ccccc2F)[C@@H]1CO,inconclusive: 52.3%
4,C[C@@H]1CN([C@H](C)CO)C(=O)c2cc(C3=CCCC3)cnc2O[C@@H]1CN(C)C(=O)C1CC1,inactive: 0.509%
5,CN(C)S(=O)(=O)c1ccc2c(c1)/C(=C/c1cc3c([nH]1)CCCC3)C(=O)N2,inconclusive: 42.5%
6,CCc1ccc(OCC(=O)NNC(=O)c2cc3ccccc3o2)cc1,inactive: -2.12%
7,Cn1c(N)c(C(=O)/C=C/c2ccccc2)c(=O)[nH]c1=O,inconclusive: 66.4%
8,O=C(NCc1ccco1)c1ccc(F)c(S(=O)(=O)N2CCCCC2)c1,inactive: -0.213%
9,COc1ccc(NC(=O)Nc2ccc3c(c2)C(=O)N([C@H](C)CO)C[C@H](C)[C@@H](CN(C)Cc2ccncc2)O3)cc1,active: 170%
10,Cc1ccc(S(=O)(=O)N(C)C[C@@H]2Oc3ccc(NC(=O)C4CC4)cc3C(=O)N([C@@H](C)CO)C[C@@H]2C)cc1,inconclusive: 46.8%
11,O=C(Nc1cccc(S(=O)(=O)Nc2ccc(Cl)cc2)c1)c1ccc2c(c1)OCCO2,inconclusive: 37.5%
12,COc1ccc(NC(=O)Nc2ccc3c(c2)CC(=O)N([C@H](C)CO)C[C@@H](C)[C@@H](CN(C)C(=O)Nc2ccc(F)cc2)O3)cc1,inactive: -0.465%
13,C[C@@H]1CN([C@@H](C)CO)C(=O)c2cccc(NS(=O)(=O)c3cn(C)cn3)c2O[C@H]1CN(C)C(=O)Nc1cccc2ccccc12,inactive: 0.143%
14,C[C@@H]1CN([C@H](C)CO)C(=O)c2cc(NC(=O)CCN3CCOCC3)ccc2O[C@@H]1CN(C)Cc1ccncc1,active: 35.7%
15,Cc1ccccc1NC(=O)CS(=O)(=O)c1cn(CC(=O)N2CCOCC2)c2ccccc12,inconclusive: 75.2%
16,O=C(NCc1ccco1)/C(=C\C=C\c1ccccc1)NC(=O)c1ccco1,inconclusive: 40.4%
17,Cc1cc(C)cc(N(C(=O)c2csnn2)C(C(=O)NC(C)(C)C)c2ccncc2)c1 (centres undefined),inactive: 4.57%
18,CCCC1CC(C)(/C(C)=N\NC(N)=S)OC1=O (centres undefined),inconclusive: 27.2%
19,C=CCn1c(=N)n(CC(=O)c2ccc(Br)s2)c2ccccc21,active: 69.2%
20,C[C@@H]1CN([C@H](C)CO)C(=O)Cc2cc(NC(=O)Nc3ccc(F)cc3)ccc2O[C@H]1CN(C)Cc1ccc(C(F)(F)F)cc1,inconclusive: 37.8%
21,CCCCn1nc(C(=O)N(CCOC)c2c(N)n(CCCC)c(=O)[nH]c2=O)c2ccccc2c1=O,inactive: 1.1%
22,Cc1onc(-c2ccccc2)c1C(=O)c1c[nH]c(C(=O)NCc2ccncc2)c1,inactive: -2.17%
23,CC(C)CN1C(=O)c2ccccc2C1c1nnnn1-c1ccc2c(c1)OCCO2 (centres undefined),inconclusive: 87.1%
24,COc1ccc(CN(C)C[C@H]2OCCCC[C@@H](C)Oc3ccc(NC(=O)Nc4ccc5c(c4)OCO5)cc3C(=O)N([C@@H](C)CO)C[C@@H]2C)cc1,inconclusive: 38.7%
25,Cc1ccc(C(=O)NCc2ccc(Cl)cc2)cc1S(=O)(=O)N1CCCCC1,inconclusive: 163%

row,SMILES,activation
1,Cc1ccc(S(=O)(=O)N[C@@H](Cc2ccccc2)C(=O)N2CCC(C(=O)N[C@@H](CCC(N)=O)C(=O)O)CC2)cc1,active: 65.9%
2,C[C@@H]1CN([C@@H](C)CO)C(=O)c2cc(NC(=O)Nc3ccccc3)ccc2O[C@H]1CN(C)C(=O)Nc1ccc(C(F)(F)F)cc1,inconclusive: 35.5%
3,CCOc1ccccc1N=Cc1c(O)n(C)c(=O)n(C)c1=O,inconclusive: 42.8%
4,C/C(=N/NC(=O)c1ccncc1)c1ccc(NC(=O)c2ccccc2)cc1,inconclusive: 30.5%
5,CC(C)CC#Cc1ccc2c(c1)O[C@H](CN(C)C(=O)c1ccccc1)[C@H](C)CN([C@@H](C)CO)S2(=O)=O,active: 84.9%
6,C[C@@H]1CN([C@H](C)CO)C(=O)c2c(c3ccccc3n2C)-c2ccccc2CO[C@@H]1CN(C)Cc1ccccc1C(F)(F)F,active: 30.5%
7,NC(=O)c1ccc(CN2CCC(Cc3ccccc3)CC2)cc1,inconclusive: 45.3%
8,NCc1c(O)ccc2ccccc12,inactive: 0.15%
9,Cc1ccc(OCCCCN2CCCCC2)c(C)c1,inconclusive: 57.2%
10,CC1=CC2=NC(=O)CC(C)(C(=O)N(CC(=O)NC3CCCC3)Cc3ccccc3)N2C=C1 (centres undefined),active: 41.2%
11,CN(C)c1ccc(C=c2c3ccccc3n3c2c2c([n+]3C)CCCC2)cc1,active: 68.3%
12,COc1cccc2c1C(=O)c1c(O)c3c(c(O)c1C2=O)C[C@@](O)(C(=O)CO)C[C@@H]3OC1CC(N)C(O)C(C)O1 (some centres undefined),inconclusive: 38.1%
13,COCCNC(=O)c1ccc(N2CC3CC(C2)c2cccc(=O)n2C3)c(NC(=O)c2cc(OC)cc(OC)c2)c1 (centres undefined),inconclusive: 32.5%
14,C[C@H]1CN([C@@H](C)CO)C(=O)Cc2cc(NC(=O)C3CCCCC3)ccc2O[C@@H]1CN(C)C(=O)NC1CCCCC1,inactive: 2.17%
15,C[C@@H]1CN([C@@H](C)CO)C(=O)c2cccc(NC(=O)NC3CCCCC3)c2O[C@H]1CN(C)S(=O)(=O)c1ccc(F)cc1,inconclusive: 33.8%
16,Cc1ccc(-c2csc(N)n2)cc1,inconclusive: 43.2%
17,CCCN(C(=O)c1cc(S(=O)(=O)N2CCCCC2)ccc1Cl)C1CCS(=O)(=O)C1 (centres undefined),inconclusive: 69.7%
18,C[C@H]1CN([C@@H](C)CO)C(=O)c2cc(Br)cnc2O[C@@H]1CN(C)CC1CCOCC1,inactive: 4.37%
19,O=[N+]([O-])c1ccc(N2CCCC2)c([N+](=O)[O-])c1,inconclusive: 55.7%
20,CC(C)(C)NC(=O)C(c1ccncc1)N(C(=O)Cn1nnc(-c2ccc(F)cc2)n1)c1ccccc1F (centres undefined),inconclusive: 55.8%
21,COc1ccc(NC(=O)N2C[C@@H]3[C@H](c4ccccc42)[C@H](CO)N3C(=O)C2CCCC2)cc1,inactive: 0.0565%
22,CC(C)NC(=O)CSc1nnc(CNC(=O)OC(C)(C)C)n1C,inconclusive: 27%
23,O=C(Nc1ccccc1Cl)c1ccc2nsnc2c1,inconclusive: 61.5%
24,COc1ccc(N2C(=S)NC3N2C(=S)NC3(C)c2ccccc2)cc1 (centres undefined),inconclusive: 41.8%
25,CC1CC(C)(C)NC(=S)N1CCCC(=O)NCc1ccccc1 (centres undefined),inconclusive: 68.6%

row,SMILES,activation
1,O=C(CCCCn1c(=O)[nH]c2ccccc2c1=O)NCCc1c[nH]c2ccccc12,inconclusive: 64.8%
2,CC(C)[C@H](NC(=O)c1ccccc1)C(=O)OCC(=O)N1CCCCCC1,inconclusive: 54.9%
3,COc1ccc(NC(=O)NC2(C(=O)N3CCOCC3)CCCCC2)cc1,active: 39%
4,COc1cc(NS(=O)(=O)c2ccc(C)cc2)c2c(c1N)C(=O)c1ccccc1C2=O,active: 127%
5,Cc1noc(C)c1S(=O)(=O)Nc1ccc2c(c1)CC(=O)N([C@H](C)CO)C[C@@H](C)[C@H](CN(C)C(=O)Nc1cccc3ccccc13)O2,active: 32.1%
6,Cc1nnc(NC(=O)NC(C)N2C(=O)C3C4C=CC(C4)C3C2=O)s1 (centres undefined),inconclusive: 49.9%
7,C[C@H](CO)N1C[C@H](C)[C@@H](CN(C)C)Oc2ccc(NC(=O)CCCN(C)C)cc2CC1=O,active: 204%
8,CS(=O)(=O)Nc1cccc(NC(=O)c2cccc3c(-c4ccc(F)c(F)c4)coc23)c1,inconclusive: 53.4%
9,O=C(C[C@H]1CC[C@H]2[C@@H](COC[C@H](O)CN2C(=O)Nc2ccccc2)O1)NCCCN1CCOCC1,inactive: -0.0155%
10,Cc1cc(-c2ccc(/C=N/n3cnnc3)o2)ccc1Cl,inconclusive: 49.4%
11,COc1cccc(SCC2(O)CCN(C(=O)c3ccc(Cl)cc3)CC2)c1,inconclusive: 39.5%
12,COc1ccc(S(=O)(=O)Nc2ccc3c(c2)CC(=O)N([C@H](C)CO)C[C@H](C)[C@@H](CN(C)C(=O)NC2CCCCC2)O3)cc1,active: 53.2%
13,CC1=C(C(=O)Nc2ccccc2C(=O)NCCCOC(C)C)SCCO1,inconclusive: 28.7%
14,C#CCOC(=O)C[N+](C)(C)CC#Cc1ccccc1,inconclusive: 69.5%
15,CCC(=O)Nc1ccc2c(c1)C(=O)N(C)[C@@H]1CC[C@H](CC(=O)NC3CCCC3)O[C@H]1CO2,inactive: -0.001%
16,COCC(=O)N1CC2(CN(Cc3ccc(OC)cc3)C2)c2c([nH]c3cc(OC)ccc23)[C@H]1CO,inactive: -0.292%
17,CCOC(=O)N1CCN(Cc2nc3cc(NC(=O)c4ccco4)ccc3n2C)CC1,inconclusive: 40.3%
18,CCOc1ccc(NS(=O)(=O)c2ccc(C(=O)N3CC(C)OC(C)C3)cc2)cc1 (centres undefined),inconclusive: 29.2%
19,S=c1nc(COc2ccccc2)[nH]c2ccccc12,inactive: 0.535%
20,CCN(CC)c1ccc(S(=O)(=O)N2CCOCC2)cc1NC(=O)CN1C(=O)NC2(CCCC2)C1=O,active: 62.6%
21,CCOC(=O)C1CCN(CCC(=O)Nc2cccc(C)c2)CC1,inconclusive: 26.2%
22,C[C@@H]1CN([C@H](C)CO)C(=O)c2cc(NC(=O)Nc3ccc4c(c3)OCO4)ccc2O[C@H]1CN(C)S(=O)(=O)c1ccc(F)cc1,active: 51.2%
23,CCCC(=O)Nc1ccc2c(c1)C(=O)N(C)[C@@H]1CC[C@@H](CC(=O)NCCc3ccccc3)O[C@H]1CO2,inconclusive: 34.3%
24,COc1ccc(CN(C)C[C@@H]2Oc3c(NC(=O)Nc4ccc(F)cc4)cccc3C(=O)N([C@@H](C)CO)C[C@H]2C)cc1,active: 261%
